Some of the results follow.

This assay concerns the target T1, OsWOX13 (Oryza sativa, UniProt Q5QMM3 1-267).
T1 sequence: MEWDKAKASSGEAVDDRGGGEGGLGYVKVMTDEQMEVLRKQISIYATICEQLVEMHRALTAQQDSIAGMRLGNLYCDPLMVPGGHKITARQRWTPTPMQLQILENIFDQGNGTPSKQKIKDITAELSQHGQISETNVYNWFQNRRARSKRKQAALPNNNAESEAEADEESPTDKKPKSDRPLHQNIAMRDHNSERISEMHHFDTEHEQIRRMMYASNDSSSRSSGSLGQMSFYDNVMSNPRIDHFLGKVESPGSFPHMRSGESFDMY
The assay is described as follows: protein-binding microarray (RPBM); PBS, 2% BSA, 51.3 ng/ul salmon testes DNA, 50 uM zinc acetate, 200 nM TF, 25 C, 1 h; high values mean tight binding. Particulars: protein: recombinant; tags: N-terminal polyhistidine and DsRed monomer fusion (pET32a); label: CyDye5-dUTP incorporated in the synthesized complementary strand; 3' TTTTT single-stranded linker to array surface; dsDNA, one strand shown. The essentials: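 Transcription factors, each fused N-terminally to a polyhistidine tag and DsRed, were expressed in E. coli BL21-CodonPlus and purified on Ni–NTA. A custom Agilent array was made double-stranded by primer extension with Cy5-dUTP and blocked with 2% BSA. It was incubated with 200 nM protein in PBS, 2% BSA, salmon testes DNA and 50 µM zinc acetate at 25 °C for 1 h, then washed. The binding signal is per-feature fluorescence intensity (arbitrary units) read on an Axon 4000B scanner.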
On to “TTCAAAGACATTCCCAATCAACATAGTTCAGGTTTCAGAACGGAGTCACCTAGTGCAG”, for which the binding signal was 3720 fluorescence intensity (a.u.).
Turning to “CAAGCTGTCTAATTAAAAGGGTTTCACAACATTTTGAATGCGGAGTCACCTAGTGCAG”, the binding signal is 4100 fluorescence intensity (a.u.).
Next, “ATTTTCTTCTTGCTAATTGACTTCCATTTTGTTCGTTGGTCGGAGTCACCTAGTGCAG”: 9530 fluorescence intensity (a.u.).
Regarding “CATAAATGAATAATTAGCAGTACAAATCGAGAACTATATGCGGAGTCACCTAGTGCAG”, the binding signal was 28400 fluorescence intensity (a.u.).
As for “GAATAATTTTGTTTAAGATTTTACCGGAATCAATAAAACCCGGAGTCACCTAGTGCAG”, the binding signal was 14800 fluorescence intensity (a.u.).
“TGAGATTCCACCAATTAATCAACAATCCAACAAACCAATCCGGAGTCACCTAGTGCAG”: the binding signal was 10500 fluorescence intensity (a.u.).
On to “GAATCGAAATCAGAGTGGTGTCAATCATGAGGACATGGTACGGAGTCACCTAGTGCAG”, for which the binding signal is 3980 fluorescence intensity (a.u.).
Consider “TCCGATTTATTTGTCAAAATTGAGCGCTGTTTCGTTAGTTCGGAGTCACCTAGTGCAG”, for which the binding signal is 6170 fluorescence intensity (a.u.).
For the sequence “ATTTAAATCATCATCTATAGTCAATCTAATAGCTCACTCACGGAGTCACCTAGTGCAG”, the binding signal was 8910 fluorescence intensity (a.u.).
Consider “ACATGTTTTATCAATTAGTAGTATGGGCATATTACTAGTGCGGAGTCACCTAGTGCAG”, for which the binding signal is 17800 fluorescence intensity (a.u.).
Take “TGTAATTACAGGTGAAAACAGCCAGAAAGGAAATGAAAGCCGGAGTCACCTAGTGCAG”: the binding signal is 9010 fluorescence intensity (a.u.).
Regarding “ACCACTAATAATTAATCAGTTCACAGAAATGTTCCAGGAGCGGAGTCACCTAGTGCAG”, the binding signal is 15400 fluorescence intensity (a.u.).
With “GAAGTCTTGTCGTAATTATGTGATATTTGTTGGCAGGTAACGGAGTCACCTAGTGCAG”, the binding signal was 4450 fluorescence intensity (a.u.).
As for “CTCGATTGCCGATTAATTAGTTGACCTCTTCGCTTATCCTCGGAGTCACCTAGTGCAG”, the figure is 27800 fluorescence intensity (a.u.); as for “TACAAACAGAATGATTTCATAGTAGTAGTGCAACTTCCTTCGGAGTCACCTAGTGCAG”, 3610 fluorescence intensity (a.u.).
Take “TGATTAATTGAGAACCATTATATCATTATCATACAAACTTCGGAGTCACCTAGTGCAG”: the binding signal is 37800 fluorescence intensity (a.u.).
As for “TGCCTCCCTTCCAATCTTGGCTAATCAGCTAATACCAACTCGGAGTCACCTAGTGCAG”, the figure is 3850 fluorescence intensity (a.u.); as for “AACACATGATTAATTAAGTATTAACTATAAAGAACTTGAACGGAGTCACCTAGTGCAG”, 19100 fluorescence intensity (a.u.).
As for “ATTATTTAATTGCTCTTATTTTAATCAGAGAGATCGTTCTCGGAGTCACCTAGTGCAG”, the figure is 24800 fluorescence intensity (a.u.); as for “GCGATGCTCAAGTTGATTTGCTCAATCTCACAAGGAAGCACGGAGTCACCTAGTGCAG”, 4900 fluorescence intensity (a.u.); as for “AGCCAAATAATTCTCAATCACTCCTCCCCGATCCAATCCACGGAGTCACCTAGTGCAG”, 10300 fluorescence intensity (a.u.).
Next, “AGTTGTGGTGATTTAGGACCTAAATGACATATCATGATAACGGAGTCACCTAGTGCAG”: 15100 fluorescence intensity (a.u.); “GACAAATTTAGTATTCTCTGAAATTTCACCACACTTTCCACGGAGTCACCTAGTGCAG”: 6090 fluorescence intensity (a.u.).
For “TCATTACCTGACTGTAATTACTTTGAGAGCTCACTAGAGACGGAGTCACCTAGTGCAG”, the binding signal is 11500 fluorescence intensity (a.u.).
Next, “GTAAATTAATTAATATGGCACCCGTGTTCTGTTTTAGTGACGGAGTCACCTAGTGCAG”: 27900 fluorescence intensity (a.u.); “TACTAATTACTACTAACCGTTAAAAGTAGCCGCCGGTTAACGGAGTCACCTAGTGCAG”: 17800 fluorescence intensity (a.u.); “GCTCCAATTCATCTATAGTCAATCTAATAGCTCATTCATACGGAGTCACCTAGTGCAG”: 3580 fluorescence intensity (a.u.).
As for “ATTTAATTAAGTTTATAAACAAATATAGTAACATTTTCAACGGAGTCACCTAGTGCAG”, the figure is 18700 fluorescence intensity (a.u.); as for “TATATTCAATGTTAAATTTAATTAAACTAATATAGTATTGCGGAGTCACCTAGTGCAG”, 5860 fluorescence intensity (a.u.); as for “TTTGACAAATTTGACAACTCCTCTAGCTCCCACTGCTACTCGGAGTCACCTAGTGCAG”, 38200 fluorescence intensity (a.u.).
As to “GCTGACAAGCCACAATCACTAGTAAATACGCATTGACGATCGGAGTCACCTAGTGCAG”, the binding signal was 4720 fluorescence intensity (a.u.).
For “GTAAGCAAATTAACTCAAGAAAACTTTAAAAGGGTTGTTGCGGAGTCACCTAGTGCAG”, the binding signal was 7820 fluorescence intensity (a.u.).
For the sequence “TTGATTGAAGTATAGATGGCCTGGATGGAAGCAAATTTGCCGGAGTCACCTAGTGCAG”, the binding signal is 37500 fluorescence intensity (a.u.).
As for “ACGAATTTTAGATTGAGTTATTTGAGAGCTAAATTTTCAACGGAGTCACCTAGTGCAG”, the figure is 12500 fluorescence intensity (a.u.); as for “ATGTTCAATTTAATTGCTGTTTGTTACCTTTTGCATGGAGCGGAGTCACCTAGTGCAG”, 18300 fluorescence intensity (a.u.).
As to “AGCTGATGACTTTGATGTGCTGATGCTGATGCATACTGCTCGGAGTCACCTAGTGCAG”, the binding signal was 17100 fluorescence intensity (a.u.).
“TGTCTGATTTATTACCTTACAAAATGCGACAGCAGTAAATCGGAGTCACCTAGTGCAG”: the binding signal is 10700 fluorescence intensity (a.u.).
For “AAACAAATTACAGATTCCGTTAGAAAACTACGAGATGAATCGGAGTCACCTAGTGCAG”, the binding signal is 8040 fluorescence intensity (a.u.).
Next, “CGTACCAGCTGATTGATGGTGTCACTCACCAAATGTTCTTCGGAGTCACCTAGTGCAG”: 34300 fluorescence intensity (a.u.); “CGATGACAGTTAGATAGGTTATCCCAATTATTATACTGGTCGGAGTCACCTAGTGCAG”: 15100 fluorescence intensity (a.u.); “GAGAATTGCCCCTAAATTTAATGTAAATATCTTGAAGTGTCGGAGTCACCTAGTGCAG”: 6120 fluorescence intensity (a.u.).
As for “TTTGTTCCTTAATTATCTCGCCTCCACTTTAACTGTGGGCCGGAGTCACCTAGTGCAG”, the figure is 9060 fluorescence intensity (a.u.).

The record behind these values is publication PMC7819943, “Rice protein-binding microarrays: a tool to detect cis-acting elements near promoter regions in rice”.
